In a collection of fitness landscapes (doi:10.1126/science.1257360):
This is one part of the list.

B1: PhoQ; a variant is named by its letters at X, in order, P23837 (parent)
chain: MKKLLRLFFPLSLRVRFLLATAAVVLVLSLAYGMVALIGYSVSFDKTTFRLLRGESNLFYTLAKWENNKLHVELPENIDKQSPTMTLIYDENGQLLWAQRDVPWLMKMIQPDWLKSNGFHEIEADVNDTSLLLSGDHSIQQQLQEVREDDDDAEMTHSVAVNVYPATSRMPKLTIVVVDTIPVELKSSYMVWSWFIYVLSANLLLVIPLLWVAAWWSLRPIEALAKEVRELEEHNRELLNPATTRELTSLVRNLNRLLKSERERYDKYRTTLTDLTHSLKTPLXXLQXXLRSLRSEKMSVSDAEPVMLEQISRISQQIGYYLHRASMRGGTLLSRELHPVAPLLDNLTSALNKVYQRKGVNISLDISPEISFVGEQNDFVEVMGNVLDNACKYCLEFVEISARQTDEHLYIVVEDDGPGIPLSKREVIFDRGQRVDTLRPGQGVGLAVAREITEQYEGKIVAGESMLGGARMEVIFGRQHSAPKDE

Variants of: B1
Test: enrichment ratio after two sorts for PhoP signalling (ratio (wild type AVST 3.29)); higher = more functional
Details: with PhoP (E. coli)

Variant	enrichment ratio
DCRK	≤ 0.25
YFWV	≤ 0.25
FERW	≤ 0.25
KLFP	≤ 0.25
HFSR	0.254
FWMN	≤ 0.25
DEFM	≤ 0.25
GRGH	≤ 0.25
MCDM	≤ 0.25
RSYE	≤ 0.25
MQYH	≤ 0.25
PYYN	≤ 0.25
TWNC	≤ 0.25
QIWQ	34.4
NAPH	≤ 0.25
TIGR	5.97
PNTI	≤ 0.25
DQVG	≤ 0.25
NCDC	≤ 0.25
WFNY	≤ 0.25
VKHH	≤ 0.25
AMRN	≤ 0.25
NLNH	≤ 0.25
YTKA	≤ 0.25
GQSF	≤ 0.25
VMLT	≤ 0.25

Variant	enrichment ratio
SNSV	11.2
RVAW	≤ 0.25
YQPN	≤ 0.25
NFVF	≤ 0.25
SHKK	≤ 0.25
IDLP	≤ 0.25
GSKF	≤ 0.25
DFNH	≤ 0.25
IDPN	≤ 0.25
QRNY	≤ 0.25
HSAW	≤ 0.25
VAPW	≤ 0.25
VNLM	22.6
YEQL	≤ 0.25
NIRA	≤ 0.25
GPCI	≤ 0.25
IPTI	≤ 0.25
RRDL	≤ 0.25
VLDS	≤ 0.25
NHVY	≤ 0.25
FGDG	≤ 0.25
LSNF	≤ 0.25
PHEF	≤ 0.25
NIYC	≤ 0.25
ENKN	≤ 0.25
EDEF	≤ 0.25

Variant	enrichment ratio
WCYP	≤ 0.25
RTSQ	≤ 0.25
NCQL	≤ 0.25
PDGR	≤ 0.25
FDAS	≤ 0.25
HYFQ	≤ 0.25
NYRR	≤ 0.25
SALT	11.2
WKNN	≤ 0.25
KKCQ	≤ 0.25
MSKN	≤ 0.25
EKHG	≤ 0.25
MRFA	≤ 0.25
KCDF	≤ 0.25
YTWE	≤ 0.25
SEVR	12.1
TPGW	≤ 0.25
LLAS	0.337
MNES	≤ 0.25
GNLR	≤ 0.25
GYFS	≤ 0.25
SFFL	≤ 0.25
APCD	≤ 0.25
QEYN	≤ 0.25
DCMH	≤ 0.25
YQYR	≤ 0.25

Variant	enrichment ratio
KTWV	≤ 0.25
VDGK	≤ 0.25
VCGH	≤ 0.25
IVLA	≤ 0.25
GWTP	≤ 0.25
MDDM	≤ 0.25
IMGW	≤ 0.25
NMFK	≤ 0.25
DSHP	≤ 0.25
DWHA	≤ 0.25
RNHN	≤ 0.25
QFLD	≤ 0.25
DLEH	≤ 0.25
RMYC	≤ 0.25
GVMP	≤ 0.25
ECEP	15.1
FSTR	≤ 0.25
LQWS	≤ 0.25
HSNL	≤ 0.25
APRR	≤ 0.25
VLLY	≤ 0.25
SSCR	≤ 0.25
IHDG	≤ 0.25
FICH	≤ 0.25
AWTL	≤ 0.25
KLKD	≤ 0.25

Variant	enrichment ratio
QVPL	≤ 0.25
GVDF	≤ 0.25
SCVC	2.27
QGFQ	13.4
FHEE	≤ 0.25
HGFG	≤ 0.25
VIGH	≤ 0.25
EQMV	≤ 0.25
AAHF	≤ 0.25
PSTI	≤ 0.25
ILGM	≤ 0.25
RKLV	≤ 0.25
FMKN	≤ 0.25
LSHF	≤ 0.25
WNQW	≤ 0.25
EHRH	≤ 0.25
DIMF	≤ 0.25
GDVE	≤ 0.25
SQDR	≤ 0.25
EPRL	≤ 0.25
YNNV	≤ 0.25
MLLT	≤ 0.25
MNPL	≤ 0.25
KHEA	≤ 0.25
YHDV	≤ 0.25
RMTN	≤ 0.25

Variant	enrichment ratio
IANG	≤ 0.25
SGQY	4
VRKV	≤ 0.25
VPSL	≤ 0.25
TEWG	3.3
HVGL	≤ 0.25
MVRD	≤ 0.25
VYPM	≤ 0.25
MHNW	≤ 0.25
IWCA	≤ 0.25
FQSR	≤ 0.25
LKAC	≤ 0.25
QTEP	≤ 0.25
DPFM	≤ 0.25
NNIG	≤ 0.25
FKNS	≤ 0.25
FHYT	≤ 0.25
AQLI	7.44
HLAR	≤ 0.25
DTPC	≤ 0.25
WQAF	≤ 0.25
PFIR	≤ 0.25
YTFK	≤ 0.25
